± gives the standard deviation. Only a part is listed here, and it is no random draw.
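Further: 1 nM active piRISC with 0.1 nM target library at 33 °C single turnover.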

The assay relates to MIWI (PIWIL1) piRISC loaded with L1MC piRNA (30 nt). As to the kind of experiment: pre-steady-state target cleavage rate (min^-1); MIWI and MILI are mouse PIWI proteins and EfPiwi is from a freshwater sponge; tags in brackets are library labels; higher = faster piRNA-guided slicing of the target. As to conditions: guide: L1MC piRNA 5'p-UAACUAAAUACUAUGCAAGCUGUAGGUCCU; auxiliary factor: 500 nM mouse GTSF1. The method in brief: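 A burst-and-steady-state fit was used to obtain the pre-steady-state cleavage rate. The input data were sequencing reads of uncleaved targets, normalised to depth and to weakly complementary targets, from a […] transcribed, DNA-blocked target RNA library mixed with 1 nM active affinity-purified piRISC holding one synthetic guide, with or without 500 nM GTSF1 partner protein, in HEPES–potassium acetate buffer at 33 °C for 0–8 or 0–960 min. Three trials were pooled and k3 was capped at 0.0001 min^-1.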
Consider AGGACCUACAGCUUGCAUAUGUAUUUAGUUA, for which the “pre-steady-state target cleavage rate” value worked out at 0.271 ± 0.11. The same measure for UCCUGCUACAGCUUGCAUAGUAUUUUGAAA: 0.26 ± 0.041; for UGGACCUACAGCUUGCAAUGUAUUUUCAAA: 0.0195 ± 0.0055; for AGGACCUACAGCUUGCAUAAGUAUUUAGUUA: 0.338 ± 0.12. Then UCCACCUACAGCAUGCAUAGUAUUUAGAAA, with 0.462 ± 0.065; and UCCACCUUGAGCUUGCAUAGUAUUUUCAAA, with 0.0995 ± 0.02; and UCCUGGAUGAGCUUGCAUAGUAUUUUCAUA, with 0.0798 ± 0.02. The same measure for UCCUGGAACUCCUUGCAUAGUAUUUACAAA: 0.26 ± 0.078; for AGGACCUACUCGUUGCAUAGUAUUUUCAAA: 0.248 ± 0.044. As to UCCACCUACAGCUUGCUAUAGUAUUUAGUUA, the “pre-steady-state target cleavage rate” value is 0.0517 ± 0.016.

For UCGACCUACAGCUUGCAUAGUUAUUUCAAA, the “pre-steady-state target cleavage rate” value was found to be 0.269 ± 0.08. The same measure for UCCUGGAUGUCGAACGUAUCUAUUUAGCUUA: less than 0.0001; for UCCUGCUACAGCUUGCAUACUAUUUACAAA: 0.21 ± 0.043. On to UCCUGGAUCAGCUUCGAUAGUAUUUAGUAA, for which the “pre-steady-state target cleavage rate” value is 0.0137 ± 0.0063.

Consider UCCUCCUACAGCUUGCAUCAGUAUUUAGUUA, for which the “pre-steady-state target cleavage rate” value stood at 0.0862 ± 0.028. Then UCCUCCUACACGUUGCAUAGUAUUUACAAA, with 0.173 ± 0.028; and UGGACCUACAGCUUGCAUAGUAAUUACAAA, with 0.135 ± 0.029; and UCCACGUACAGCUUGCAUAGUAUUUUCAAA, with 0.253 ± 0.033. Then UCCUCGUACAGCUUGCAUAGUAUUUUCAAA, with 0.277 ± 0.034; and UCCACCUACAGCUAGCAUAGUAUUUACAAA, with 0.301 ± 0.041.

In the case of UCCUGGAUCAGCUAGCAUAGUAUUUUCAAA, the “pre-steady-state target cleavage rate” value is 0.0506 ± 0.015. Then UCCUGGAUGUCCUCUGCAUAGUAUUUAGUUA, with 0.0075 ± 0.002; and UCCUGGAACAGGAAGCAUAGUAUUUAGUUA, with 0.0934 ± 0.016; and UCCUCCUACAGCUUGCAUUGUAUUUACAAA, with 0.132 ± 0.026. With UCCUGGUACAGCUUCGUUAGUAUUUAGUUA, the “pre-steady-state target cleavage rate” value turned out to be 0.0426 ± 0.0061.

As to UCCUGGAUGUCGUAGCAUAGUAUUUACUUA, the “pre-steady-state target cleavage rate” value came to 0.0046 ± 0.0037. The same measure for UCCUGGAUGUCCUUGCAUAGUAUUUACUAA: 0.0245 ± 0.0069; for UCCUGGAUGUGCUUGCCAUAGUAUUUAGUUA: 0.00557 ± 0.0046; for UCCUCCUACAGCUUGCAUAGUAUAUUCAAA: 0.271 ± 0.044. Then UCCUGGAUGAGCUUCCAAAGUAUUUAGUUA, with 0.0261 ± 0.007; and UCCUGGAUGUCCUUGCAUAGUAUUCUAGUUA, with 0.0314 ± 0.0088.

On to UCCACCUACAGCUUGCUAAGUAUUUAGUAA, for which the “pre-steady-state target cleavage rate” value was found to be 0.0952 ± 0.019. The same measure for UCGACCUACAGCUUCCAAAGUAUUUAGUUA: 0.436 ± 0.024; for UCCUGGAUGUCGAACGUAAGUUUUUUGUUA: less than 0.0001; for UCCUGGAACAGCUUGCUAUGUAUUUAGAAA: 0.00487 ± 0.0036. The same measure for UCCUGGAACAGCUUGCAUUCAAUUUAGUUA: 0.00455 ± 0.0044; for UCGACCUACAGCUUGCAUAGUUAAUUCAAA: 0.538 ± 0.15.

Source of the values: the supplement of paper PMC10338343.
